Measured values: patent publication US11807625B2, “Capsid inhibitors for the prevention of HIV” (Gilead Sciences, Inc., priority 2019, dated 2023)
Several values for one entry are separate records, joined by “and”; a condition that tells them apart may be missing. Equal entries are not always repeated. The source gives many values for each of these; only a part stands here.

Assay: PK of compound of Formula (Ia) after single subcutaneous dose of solution formulations in beagle dogs
Type: in vivo
Method: Formulations containing the compound of Formula (Ia), or a pharmaceutically acceptable salt thereof, were prepared as solutions and optionally administered subcutaneously or intramuscularly to rats, rabbits, and/or dogs.
A solution of about 400 mg/mL of the compound of Formula (Ia) having 17.00 w/w % water, 36.40 w/w % PEG 300, 35.20 w/w % of a sodium salt of a compound of Formula (Ia), 5.00 w/w % ethanol, and 6.40 w/w % poloxamer 188 was prepared. The solution was administered subcutaneously to male beagle dogs at a dose level of about 12 mg/kg and male Wistar Han rats at a dose level of about 50 mg/kg. The pharmacokinetic profiles were determined, and the results for dogs are summarized in Table and Table, while the results for rats are summarized in Table and Table below.
A solution of about 500 mg/mL of the compound of Formula (Ia) having 14.06 w/w % water, 30.12 w/w % PEG 300, […] of a sodium salt of a compound of Formula (Ia), 5.00 w/w % ethanol, and 6.40 w/w % poloxamer 188 was prepared. The solution was administered subcutaneously to male beagle dogs at a dose level of about 12 mg/kg and male Wistar Han rats at a dose level of about 50 mg/kg. The pharmacokinetic profiles were determined, and the results for dogs are summarized in Table and Table, while the results for rats are summarized in Table and Table below.
A solution of about 300 mg/mL of the compound of Formula (Ia) having 23.33 w/w % water, 48.99 w/w % PEG 300, 26.47 w/w % of a sodium salt of a compound of Formula (Ia), and 1.21 w/w % poloxamer 188 was prepared. The solution was administered subcutaneously to male beagle dogs at a dose level of about 6 mg/kg and male Wistar Han rats at a dose level of about 50 mg/kg. The pharmacokinetic profiles were determined, and the results for dogs are summarized in Table and Table, while the results for rats are summarized in Table and Table below.
A solution of about 400 mg/mL of the compound of Formula (Ia) having 18.80 w/w % water, 40.25 w/w % PEG 300, 34.38 w/w % of a sodium salt of a compound of Formula (Ia), 5.00 w/w % ethanol, and 1.57 w/w % poloxamer 188 was prepared. The solution was administered subcutaneously to male beagle dogs at a dose level of about 12 mg/kg and male Wistar Han rats at a dose level of about 50 mg/kg. The pharmacokinetic profiles were determined, and the results for dogs are summarized in Table and Table, while the results for rats are summarized in Table and Table below.
A solution of about 500 mg/mL of the compound of Formula (Ia) having 16.29 w/w % water, 34.88 w/w % PEG 300, 41.92 w/w % of a sodium salt of a compound of Formula (Ia), 5.00 w/w % ethanol, and 1.91 w/w % poloxamer 188 was prepared. The solution was administered subcutaneously to male beagle dogs at a dose level of about 12 mg/kg and male Wistar Han rats at a dose level of about 50 mg/kg. The pharmacokinetic profiles were determined, and the results for dogs are summarized in Table and Table, while the results for rats are summarized in Table and Table below.
A solution of about 400 mg/mL of the compound of Formula (Ia) having 20.90 w/w % water, 44.72 w/w % PEG 300, and 34.38 w/w % of a sodium salt of a compound of Formula (Ia) was prepared. The solution was administered subcutaneously to male beagle dogs at a dose level of about 12 mg/kg and male Wistar Han rats at a dose level of about 50 mg/kg. The pharmacokinetic profiles were determined, and the results for dogs are summarized in Table and Table, while the results for rats are summarized in Table and Table below.
A solution of about 400 mg/mL of the compound of Formula (Ia) having 19.90 w/w % water, 42.59 w/w % PEG 300, 34.38 w/w % of a sodium salt of a compound of Formula (Ia), and 3.13 w/w % poloxamer 188 was prepared. The solution was administered subcutaneously to male beagle dogs at a dose level of about 12 mg/kg and male Wistar Han rats at a dose level of about 50 mg/kg. […]

Which results are given for `CC(C)(C#Cc1ccc(-c2ccc(Cl)c3c(NS(C)(=O)=O)nn(CC(F)(F)F)c23)c([C@H](Cc2cc(F)cc(F)c2)NC(=O)Cn2nc(C(F)(F)F)c3c2C(F)(F)[C@@H]2C[C@H]32)n1)S(C)(=O)=O` [compound of Formula (Ia)]?
Plasma concentration (336 h, individual dogs, SC 6 mg/kg, solution V, 300 mg/mL, 6 mg/kg): 125 nM and 164 nM; Plasma concentration (504 h, individual dogs, SC 6 mg/kg, solution V, 300 mg/mL, 6 mg/kg): 179 nM and 151 nM; Plasma concentration (672 h, individual dogs, SC 6 mg/kg, solution V, 300 mg/mL, 6 mg/kg): 135 nM; Plasma concentration (840 h, individual dogs, SC 6 mg/kg, solution V, 300 mg/mL, 6 mg/kg): 51.7 nM and 71.6 nM; Plasma concentration (1008 h, individual dogs, SC 6 mg/kg, solution V, 300 mg/mL, 6 mg/kg): 32.0 nM and 29.6 nM; Plasma concentration (1344 h, individual dogs, SC 6 mg/kg, solution V, 300 mg/mL, 6 mg/kg): 22.1 nM and 22.5 nM; Plasma concentration (1680 h, individual dogs, SC 6 mg/kg, solution V, 300 mg/mL, 6 mg/kg): 9.9 nM and 13.4 nM; Plasma concentration (2016 h, individual dogs, SC 6 mg/kg, solution V, 300 mg/mL, 6 mg/kg): 8.9 nM and 5.4 nM and 11.1 nM; Plasma concentration (2352 h, individual dogs, SC 6 mg/kg, solution V, 300 mg/mL, 6 mg/kg): 4.2 nM and 5.4 nM; Plasma concentration (2688 h, individual dogs, SC 6 mg/kg, solution V, 300 mg/mL, 6 mg/kg): 2.0 nM and 4.0 nM; Plasma concentration (3024 h, individual dogs, SC 6 mg/kg, solution V, 300 mg/mL, 6 mg/kg): 1.6 nM and 2.9 nM; Plasma concentration (3360 h, individual dogs, SC 6 mg/kg, solution V, 300 mg/mL, 6 mg/kg): 1.3 nM and 1.2 nM; Plasma concentration (beagle dogs, SC 12 mg/kg, 400 mg/mL solution AA (6.25% poloxamer 188), 24.0 h, animals #1-#3, 12 mg/kg): 98.3 nM and 187 nM; Plasma concentration (beagle dogs, SC 12 mg/kg, 400 mg/mL solution AA (6.25% poloxamer 188), 48.0 h, animals #1-#3, 12 mg/kg): 148 nM and 194 nM; Plasma concentration (beagle dogs, SC 12 mg/kg, 400 mg/mL solution AA (6.25% poloxamer 188), 96.0 h, animals #1-#3, 12 mg/kg): 141 nM and 258 nM; Plasma concentration (beagle dogs, SC 12 mg/kg, 400 mg/mL solution AA (6.25% poloxamer 188), 168 h, animals #1-#3, 12 mg/kg): 88.7 nM and 108 nM; Plasma concentration (beagle dogs, SC 12 mg/kg, 400 mg/mL solution AA (6.25% poloxamer 188), 336 h, animals #1-#3, 12 mg/kg): 147 nM; Plasma concentration (beagle dogs, SC 12 mg/kg, 400 mg/mL solution AA (6.25% poloxamer 188), 504 h, animals #1-#3, 12 mg/kg): 202 nM and 105 nM; Plasma concentration (beagle dogs, SC 12 mg/kg, 400 mg/mL solution AA (6.25% poloxamer 188), 672 h, animals #1-#3, 12 mg/kg): 161 nM and 232 nM; Plasma concentration (beagle dogs, SC 12 mg/kg, 400 mg/mL solution AA (6.25% poloxamer 188), 840 h, animals #1-#3, 12 mg/kg): 99.7 nM and 124 nM; Plasma concentration (beagle dogs, SC 12 mg/kg, 400 mg/mL solution AA (6.25% poloxamer 188), 1008 h, animals #1-#3, 12 mg/kg): 84.5 nM and 94.2 nM; Plasma concentration (beagle dogs, SC 12 mg/kg, 400 mg/mL solution AA (6.25% poloxamer 188), 1334 h, animals #1-#3, 12 mg/kg): 54.6 nM and 52.4 nM; Plasma concentration (beagle dogs, SC 12 mg/kg, 400 mg/mL solution AA (6.25% poloxamer 188), 1680 h, animals #1-#3, 12 mg/kg): 26.5 nM and 33.5 nM; Plasma concentration (beagle dogs, SC 12 mg/kg, 400 mg/mL solution AA (6.25% poloxamer 188), 2016 h, animals #1-#3, 12 mg/kg): 18.6 nM and 17.4 nM; Plasma concentration (beagle dogs, SC 12 mg/kg, 400 mg/mL solution W (5.00% ethanol, 1.57% poloxamer 188), 3.00 h, animals #1-#3, 12 mg/kg): 2.80 nM and 5.26 nM; Plasma concentration (beagle dogs, SC 12 mg/kg, 400 mg/mL solution W (5.00% ethanol, 1.57% poloxamer 188), 24.0 h, animals #1-#3, 12 mg/kg): 27.0 nM and 50.9 nM; Plasma concentration (beagle dogs, SC 12 mg/kg, 400 mg/mL solution W (5.00% ethanol, 1.57% poloxamer 188), 1008 h, animals #1-#3, 12 mg/kg): 55.3 nM and 79.1 nM; Plasma concentration (beagle dogs, SC 12 mg/kg, 400 mg/mL solution W (5.00% ethanol, 1.57% poloxamer 188), 1344 h, animals #1-#3, 12 mg/kg): 105 nM and 64.9 nM; Plasma concentration (beagle dogs, SC 12 mg/kg, 400 mg/mL solution W (5.00% ethanol, 1.57% poloxamer 188), 1680 h, animals #1-#3, 12 mg/kg): 42.5 nM and 33.3 nM; Plasma concentration (beagle dogs, SC 12 mg/kg, 400 mg/mL solution W (5.00% ethanol, 1.57% poloxamer 188), 2016 h, animals #1-#3, 12 mg/kg): 46.8 nM and 33.3 nM
